Measurements: the supplement of paper PMC4604168 (melanoma cell lines)
Some of the results follow. Single values are uncertain, as repeats are few or missing.

These compounds were tested on A101D (assay: cell count relative to DMSO control; melanoma cells; higher = more viable cells). Conditions: library dose: standard library concentration; 72 h.
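Further: cells treated in 1,536-well plates, then fixed and DAPI-stained, with nuclei counted from automated high-throughput microscope images.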

Compound | cell count
O=c1[nH]nc(Sc2ncc([N+](=O)[O-])s2)n1-c1ccc2c(c1)OCCO2 + C/C(O)=C(\C#N)C(=O)Nc1cc(Br)ccc1Br [LFM-A13] (first compound 1 µM, partner dose 10 µM) | 111%
Cn1cncc1[C@@](N)(c1ccc(Cl)cc1)c1ccc2c(c1)c(-c1cccc(Cl)c1)cc(=O)n2C [tipifarnib] + Cc1cc(SCc2sc(-c3ccc(C(F)(F)F)c(F)c3)nc2C)ccc1OCC(=O)O [GW0742] (first compound 0.05 µM, partner dose 10 µM) | 100%
Cc1cn(-c2cc(NC(=O)c3ccc(C)c(Nc4nccc(-c5cccnc5)n4)c3)cc(C(F)(F)F)c2)cn1 [nilotinib] + O=C(Oc1ccc([N+](=O)[O-])cc1)N1CCC(C(O)(c2ccc3c(c2)OCO3)c2ccc3c(c2)OCO3)CC1 [JZL184] (first compound 1 µM, partner dose 5 µM) | 90.6%
O=C(Nc1cccc(Cl)c1)Nc1ncc(CCNc2ncnc3ccsc23)s1 + C/C(O)=C(\C#N)C(=O)Nc1cc(Br)ccc1Br [LFM-A13] (first compound 0.004 µM, partner dose 10 µM) | 83.5%
NC(=O)c1ccc(N(C(N)=O)c2c(F)cccc2F)nc1-c1ccc(F)cc1F + O=C(Oc1ccc([N+](=O)[O-])cc1)N1CCC(C(O)(c2ccc3c(c2)OCO3)c2ccc3c(c2)OCO3)CC1 [JZL184] (first compound 2 µM, partner dose 5 µM) | 86.1%
C[C@]1(O)C[C@@H](c2nc(-c3ccc4ccc(-c5ccccc5)nc4c3)c3c(N)nccn32)C1 + O=C(Oc1ccc([N+](=O)[O-])cc1)N1CCC(C(O)(c2ccc3c(c2)OCO3)c2ccc3c(c2)OCO3)CC1 [JZL184] (first compound 2 µM, partner dose 5 µM) | 86.6%
O=C(Nc1cc(C(F)(F)F)cc(C(F)(F)F)c1)c1cc(Cl)ccc1O + O=C(Oc1ccc([N+](=O)[O-])cc1)N1CCC(C(O)(c2ccc3c(c2)OCO3)c2ccc3c(c2)OCO3)CC1 [JZL184] (first compound 0.08 µM, partner dose 5 µM) | 81.2%
OCc1c[nH]c2ccccc12 [Indole-3-carbinol] + O=C(Oc1ccc([N+](=O)[O-])cc1)N1CCC(C(O)(c2ccc3c(c2)OCO3)c2ccc3c(c2)OCO3)CC1 [JZL184] (first compound 4 µM, partner dose 5 µM) | 84.8%
N#CC[C@H](C1CCCC1)n1cc(-c2ncnc3[nH]ccc23)cn1 [ruxolitinib] + O=C(Oc1ccc([N+](=O)[O-])cc1)N1CCC(C(O)(c2ccc3c(c2)OCO3)c2ccc3c(c2)OCO3)CC1 [JZL184] (first compound 5 µM, partner dose 5 µM) | 100%
CO[C@@H]1[C@H](N(C)C(=O)c2ccccc2)C[C@H]2O[C@]1(C)n1c3ccccc3c3c4c(c5c6ccccc6n2c5c31)C(=O)NC4 [Midostaurin] + Cc1cc(SCc2sc(-c3ccc(C(F)(F)F)c(F)c3)nc2C)ccc1OCC(=O)O [GW0742] (first compound 0.4 µM, partner dose 10 µM) | 53.9%
CS(=O)(=O)c1ccc(C(=O)Nc2ccc(Cl)c(-c3ccccn3)c2)c(Cl)c1 [vismodegib] + C/C(O)=C(\C#N)C(=O)Nc1cc(Br)ccc1Br [LFM-A13] (first compound 5 µM, partner dose 10 µM) | 105%
CC1(C)CCC(c2ccc(Cl)cc2)=C(CN2CCN(c3ccc(C(=O)NS(=O)(=O)c4ccc(N[C@H](CCN5CCOCC5)CSc5ccccc5)c(S(=O)(=O)C(F)(F)F)c4)cc3)CC2)C1 + C/C(O)=C(\C#N)C(=O)Nc1cc(Br)ccc1Br [LFM-A13] (first compound 2 µM, partner dose 10 µM) | 39.8%
O=C(/C=C/c1cccnc1)NCCCCC1CCN(C(=O)c2ccccc2)CC1 + O=C(Oc1ccc([N+](=O)[O-])cc1)N1CCC(C(O)(c2ccc3c(c2)OCO3)c2ccc3c(c2)OCO3)CC1 [JZL184] (first compound 0.05 µM, partner dose 5 µM) | 85.3%
CNC(=O)c1cc(Oc2ccc(NC(=O)Nc3ccc(Cl)c(C(F)(F)F)c3)cc2)ccn1 [sorafenib] + C/C(O)=C(\C#N)C(=O)Nc1cc(Br)ccc1Br [LFM-A13] (first compound 2 µM, partner dose 10 µM) | 99.3%
Cc1cc(Nc2cc(N3CCN(C)CC3)nc(/C=C/c3ccccc3)n2)n[nH]1 + O=C(Oc1ccc([N+](=O)[O-])cc1)N1CCC(C(O)(c2ccc3c(c2)OCO3)c2ccc3c(c2)OCO3)CC1 [JZL184] (first compound 0.2 µM, partner dose 5 µM) | 80.2%
Nc1cccc2c1CN(C1CCC(=O)NC1=O)C2=O (stereo unspecified) [lenalidomide] + Cc1cc(SCc2sc(-c3ccc(C(F)(F)F)c(F)c3)nc2C)ccc1OCC(=O)O [GW0742] (first compound 5 µM, partner dose 10 µM) | 102%

Compound | cell count
CS(=O)(=O)c1ccc(C(=O)Nc2ccc(Cl)c(-c3ccccn3)c2)c(Cl)c1 [vismodegib] + O=C(Oc1ccc([N+](=O)[O-])cc1)N1CCC(C(O)(c2ccc3c(c2)OCO3)c2ccc3c(c2)OCO3)CC1 [JZL184] (first compound 5 µM, partner dose 5 µM) | 97.6%
Cn1cnc2c(F)c(Nc3ccc(Br)cc3Cl)c(C(=O)NOCCO)cc21 [selumetinib] + O=C(Oc1ccc([N+](=O)[O-])cc1)N1CCC(C(O)(c2ccc3c(c2)OCO3)c2ccc3c(c2)OCO3)CC1 [JZL184] (first compound 0.075 µM, partner dose 5 µM) | 70%
C/C(O)=C(\C#N)C(=O)Nc1cc(Br)ccc1Br + CCCCCCCCCCCC1=C(O)C(=O)C=C(O)C1=O [Embelin] (first compound 10 µM, partner dose 6 µM) | 104%
O=C(Nc1cc(C(F)(F)F)cc(C(F)(F)F)c1)c1cc(Cl)ccc1O + C/C(O)=C(\C#N)C(=O)Nc1cc(Br)ccc1Br [LFM-A13] (first compound 0.08 µM, partner dose 10 µM) | 87.4%
CC1(C)NC(=O)N(c2ccc([N+](=O)[O-])c(C(F)(F)F)c2)C1=O [nilutamide] + Cc1cc(SCc2sc(-c3ccc(C(F)(F)F)c(F)c3)nc2C)ccc1OCC(=O)O [GW0742] (first compound 5 µM, partner dose 10 µM) | 101%
O=C(O)c1ccc(-c2c[nH]c3ncc(-c4ccccc4)cc23)cc1C1CCCC1 + C/C(O)=C(\C#N)C(=O)Nc1cc(Br)ccc1Br [LFM-A13] (first compound 0.8 µM, partner dose 10 µM) | 89%
Cc1ccc(NC(=O)c2cccc(N(C)C)c2)cc1NC(=O)c1ccc(O)cc1 + O=C(Oc1ccc([N+](=O)[O-])cc1)N1CCC(C(O)(c2ccc3c(c2)OCO3)c2ccc3c(c2)OCO3)CC1 [JZL184] (first compound 10 µM, partner dose 5 µM) | 88.6%
C/C(O)=C(\C#N)C(=O)Nc1cc(Br)ccc1Br + O=C1NC(=O)/C(=C/c2ccc(-c3ccc(F)cc3O)o2)S1 [AS252424] (first compound 10 µM, partner dose 5 µM) | 123%
O=c1[nH]nc(Sc2ncc([N+](=O)[O-])s2)n1-c1ccc2c(c1)OCCO2 + O=C(Oc1ccc([N+](=O)[O-])cc1)N1CCC(C(O)(c2ccc3c(c2)OCO3)c2ccc3c(c2)OCO3)CC1 [JZL184] (first compound 1 µM, partner dose 5 µM) | 82.3%
NC(=O)Nc1cc(-c2cccc(F)c2)sc1C(=O)N[C@H]1CCCNC1 + O=C(Oc1ccc([N+](=O)[O-])cc1)N1CCC(C(O)(c2ccc3c(c2)OCO3)c2ccc3c(c2)OCO3)CC1 [JZL184] (first compound 0.1 µM, partner dose 5 µM) | 76.1%
CCCS(=O)(=O)Nc1ccc(F)c(C(=O)c2c[nH]c3ncc(Cl)cc23)c1F + O=C(Oc1ccc([N+](=O)[O-])cc1)N1CCC(C(O)(c2ccc3c(c2)OCO3)c2ccc3c(c2)OCO3)CC1 [JZL184] (first compound 0.4 µM, partner dose 5 µM) | 72.7%
O=C(Oc1ccc([N+](=O)[O-])cc1)N1CCC(C(O)(c2ccc3c(c2)OCO3)c2ccc3c(c2)OCO3)CC1 + CC(C)CCN1c2nc(Nc3cc(F)c(O)c(F)c3)ncc2N(C)C(=O)C1C [BID1870] (first compound 5 µM, partner dose 1 µM) | 73.4%
COc1cc(Nc2ncc(F)c(Nc3ccc4c(n3)NC(=O)C(C)(C)O4)n2)cc(OC)c1OC [Tamatinib] + Cc1cc(SCc2sc(-c3ccc(C(F)(F)F)c(F)c3)nc2C)ccc1OCC(=O)O [GW0742] (first compound 2 µM, partner dose 10 µM) | 37.7%
COc1cc2c(Oc3ccc4[nH]c(C)cc4c3F)ncnc2cc1OCCCN1CCCC1 [cediranib] + O=C(Oc1ccc([N+](=O)[O-])cc1)N1CCC(C(O)(c2ccc3c(c2)OCO3)c2ccc3c(c2)OCO3)CC1 [JZL184] (first compound 2 µM, partner dose 5 µM) | 83.9%
COc1cc(Nc2ncc(F)c(Nc3ccc4c(n3)NC(=O)C(C)(C)O4)n2)cc(OC)c1OC [Tamatinib] + C/C(O)=C(\C#N)C(=O)Nc1cc(Br)ccc1Br [LFM-A13] (first compound 2 µM, partner dose 10 µM) | 18.6%
